The RNAGym collection of RNA variant scans (doi:10.1073/pnas.2313332121)
Variants at the background level are over-represented here.

B1: TPR 5TU (parent)
chain: GGAUCUUCUCGAUCUAACAAAAAAGACAAAUCUGCCACAAAGCUUGAGAGCAUCUUCGGAUGCAGAGGCGGCAGCCUUCGGUGGCGCGAUAGCGCCAACGUUCUCAACUAUGACACGCAAAACGCGUGCUCCGUUGAAUGGAGUUUAUCAUG

Variants of: B1
Assay: polymerase ribozyme fitness, log enrichment relative to wild type (log ratio); higher = more active; in vitro selection for triplet polymerase activity
Procedure, shortened: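 Mutant libraries were PCR-built and transcribed for each subunit of a heterodimeric triplet polymerase ribozyme and selected for one round in triplicate at −7 °C, frozen, before gel excision of extended constructs and streptavidin-bead capture. Input and output libraries were Illumina-sequenced, keeping genotypes with ≥10 input reads and ≥1 read per output. Fitness is a logarithmic ratio of genotype to wild-type enrichment, in base 2, using inverse-variance-weighted replicate averages.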

Point of comparison: A39G C57G C105G A147U, “polymerase ribozyme fitness (log ratio)” value -3.4. Against it:
- A39U U55G G58U U78G C85U U90C C105A G136U A142C — lower, ≤ -4.2
- A39C G50A C69G C95U C114A — lower, ≤ -4.2
- A39G G42A U53A U56A G84U C85G U104G — lower, ≤ -4.2
- C38U U55A A64G C75A — lower, ≤ -4.2
- A39G A49U U55A U56A A91U — lower, ≤ -4.2
- A39G C118U — higher, -1.27
- A39C G94U A106G G133A — lower, ≤ -4.2
- A39G A115C — higher, -3.17
- A39U U45G C93G G100C A120U — lower, ≤ -4.2
- A39G G58C C85A G88C C118A — lower, ≤ -4.2
- C38U U55G U56A C72A G92C C125A U144A — lower, ≤ -4.2
- A39G G50C G65C A110G A120G — lower, ≤ -4.2
- C38U U82A A91C A98G U144C — lower, ≤ -4.2
- C38U G136U — higher, -2.3
- A39U A60U G84U G112A A115G A122G G124A — lower, ≤ -4.2
- C38U G59A A60C — higher, -1.48
- A39U C103G — lower, -4.14
- A39C A60U C85G A98G U139G — lower, ≤ -4.2
- A39U G84C — within 0.2 log units, -3.33
- A39G G88C — lower, ≤ -4.2
- A39G G88A A122U G143U — lower, ≤ -4.2
- A39C G58A C85A C95A A142C — lower, ≤ -4.2
- C38U C57U A73G G88A — lower, ≤ -4.2
- A39G G42A C87U U102A U134G — lower, ≤ -4.2
- A39U G46A A66G C69A A89U A122G — lower, ≤ -4.2
- C38U C76A C87A C108U G112C G141A — lower, ≤ -4.2
- A39C G59A C108U G143U — lower, ≤ -4.2
- A39G C96G C116U A119U A150C — lower, ≤ -4.2
- A39G C76A A150C — lower, ≤ -4.2
- A39U G48C G50A G58C G68A C87G A107C A137C A150C — lower, ≤ -4.2
- A39U C108G U146C — lower, ≤ -4.2
- C38U U45A C79G C95A — lower, ≤ -4.2
- A39C A91C A137G — lower, ≤ -4.2
- C38U U61C U145A — higher, -2.49
- A39G A66C G74C G80C C105G G133C — lower, ≤ -4.2
- A39G U61A G81C U101A A150U — lower, ≤ -4.2
- A39G G50C C54A C76U C87A G88C — lower, ≤ -4.2
- A39U C51A U82G C93G A147C — lower, ≤ -4.2
- C38U U53A — higher, -1.72
- C38U U61A G84A C108A U111G G140A — lower, ≤ -4.2
- A39C A40G U61A G71A A91C A106G — lower, ≤ -4.2
- C38U G92A U127G — lower, ≤ -4.2
- A39G G50U G71U G83A U127C — lower, ≤ -4.2
- A39G C87G U135G G141C — lower, ≤ -4.2
- A39U A52G A66C C125U C132G — lower, ≤ -4.2
- A39G U55G G83C G88C G100C G140U G141A U145G — lower, ≤ -4.2
- A39U A52U C54A U55A A60G U135A U151G — lower, ≤ -4.2
- A39C U55G G67C U78G G83U C93A U102A A121C — lower, ≤ -4.2
- A39U C118U — higher, -2.03
- A39C C96U A142U U144G A147C A150C — lower, ≤ -4.2
- A39C U53C U135C — lower, -3.94
- A39U A91C A122U — lower, ≤ -4.2
- C38U C76A C108U U135G G140C A150U — lower, ≤ -4.2
- A39C U61A G84U U90C — lower, ≤ -4.2
- A39G U61A G68A C93U — lower, ≤ -4.2
- A39C G84A C85G U90G A91G U111A — lower, ≤ -4.2
- C38U C57A C87A — lower, ≤ -4.2
- C38U C57U G68U C95U C103U — lower, ≤ -4.2
- A39C C51G C76U C85A — lower, ≤ -4.2
- A39G C54G C63A G70C C93U G141A — lower, ≤ -4.2
- A39G U55A G71A G92C C96U C131U C149A — lower, ≤ -4.2
- C38U G71A G81A G83U C93A — lower, ≤ -4.2
- A39U G86U C114U A120U G140A — lower, ≤ -4.2
- A39G A52G C57G C87A C96A C116A C129U — lower, ≤ -4.2
- A39U A60C U101C — lower, ≤ -4.2
- A39U A60U G70A — lower, ≤ -4.2
- A39U U53A — higher, -2.91
- A39G G70A U77G G141A A142C — lower, ≤ -4.2
- A39C A52U U55A — lower, ≤ -4.2
- C38U G86U A91U G126U U134G A142G — lower, ≤ -4.2
- A39G U56G C69U C103G U130G — lower, ≤ -4.2
- A39G C79U G83U G88A A89U A98G — lower, ≤ -4.2
- A39C A49G C51U U55G A119U — lower, ≤ -4.2
- A39C G42A C76U — lower, ≤ -4.2
- A39G G83A G117U A120C G152U — lower, -4.11
- A39C U44C C93U C108G A121C U139G — lower, ≤ -4.2
- C38U G70A C95A C99U A107U — lower, ≤ -4.2
- A39C G126C A137G G143C — lower, ≤ -4.2
- A39G U44A A91U — lower, ≤ -4.2
- C38U U77C G141U — lower, ≤ -4.2
- C38U G46U G84A U127G G143C — lower, ≤ -4.2
- A39U U53A U56C A60C U61A G86U A89G — lower, -4.17
